Data: PMC4336329 (PLoS ONE, 2015)
Out of some 310,000 compounds screened, about 2,200 (0.71%) showed an effect of 50% or more. Effects have a minus sign here. The list shows a part of the results.

Each molecule was assayed against human ether-à-go-go-related gene (hERG) potassium channel (human, UniProt Q12809) (assay: primary screen, population patch clamp on CHO cells stably expressing hERG).
Sequence of human ether-à-go-go-related gene (hERG) potassium channel (Q12809 whole entry, looked up): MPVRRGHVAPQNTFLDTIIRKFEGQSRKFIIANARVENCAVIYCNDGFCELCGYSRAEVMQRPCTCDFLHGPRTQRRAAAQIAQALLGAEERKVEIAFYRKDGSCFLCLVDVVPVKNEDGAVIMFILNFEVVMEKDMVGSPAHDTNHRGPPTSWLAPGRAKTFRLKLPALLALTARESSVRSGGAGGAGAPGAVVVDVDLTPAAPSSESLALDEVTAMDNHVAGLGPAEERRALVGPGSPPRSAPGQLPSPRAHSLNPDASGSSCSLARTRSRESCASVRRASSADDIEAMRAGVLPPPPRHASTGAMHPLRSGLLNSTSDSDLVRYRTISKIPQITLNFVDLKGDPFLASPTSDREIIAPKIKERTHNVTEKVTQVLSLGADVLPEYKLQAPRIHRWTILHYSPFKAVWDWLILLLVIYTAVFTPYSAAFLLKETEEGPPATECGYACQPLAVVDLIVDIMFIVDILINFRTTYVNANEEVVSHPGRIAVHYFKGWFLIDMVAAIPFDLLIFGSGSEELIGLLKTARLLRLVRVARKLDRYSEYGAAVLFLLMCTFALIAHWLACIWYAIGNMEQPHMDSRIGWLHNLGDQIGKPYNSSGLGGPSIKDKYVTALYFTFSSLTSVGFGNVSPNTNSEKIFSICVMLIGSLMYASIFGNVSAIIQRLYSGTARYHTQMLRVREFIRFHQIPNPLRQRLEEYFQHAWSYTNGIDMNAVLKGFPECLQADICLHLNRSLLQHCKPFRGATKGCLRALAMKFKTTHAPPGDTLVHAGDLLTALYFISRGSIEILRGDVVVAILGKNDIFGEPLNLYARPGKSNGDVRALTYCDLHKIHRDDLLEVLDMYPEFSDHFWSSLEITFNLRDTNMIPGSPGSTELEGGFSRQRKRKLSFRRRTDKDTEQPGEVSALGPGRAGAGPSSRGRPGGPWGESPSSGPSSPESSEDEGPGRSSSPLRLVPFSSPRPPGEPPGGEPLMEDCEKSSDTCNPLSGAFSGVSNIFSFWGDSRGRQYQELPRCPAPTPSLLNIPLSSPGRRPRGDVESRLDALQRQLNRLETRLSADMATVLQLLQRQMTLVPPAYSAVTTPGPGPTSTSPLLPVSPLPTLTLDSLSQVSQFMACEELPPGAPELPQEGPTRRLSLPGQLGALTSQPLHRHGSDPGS

Point of comparison: `Cn1c(N)c(C(=O)CSc2nc(C3CC3)n(-c3ccccc3)n2)c(=O)n(C)c1=O`, “hERG current change (%, negative = inhibition) at 1uM” value -7.97%. Against it:
- Cc1cc(C)nc(NS(=O)(=O)c2ccc(N/C=C\C(=O)c3ccc(Cl)cc3)cc2)n1 — higher, 2.76%
- CC1=C(N2CCOCC2)CCC1=O — higher, 13.7%
- Cc1cc(C)c(C)c(OCC(O)CN2CCN(c3ccccn3)CC2)c1.Cl (centres unmarked) — higher, -6.06%
- COc1ccccc1/C=C1/SC(=S)N(C(C)C(=O)NC2C=CS(=O)(=O)C2)C1=O (centres unmarked) — higher, 13%
- COC(=O)C1=C(C)NC(C)=C(C(=O)OC)C1c1cc2cc(C)ccc2[nH]c1=O — higher, 10.1%
- C=CCOc1c(Br)cc(CNc2ccc(NC(=O)C(C)C)cc2)cc1OCC — higher, 4.09%
- CCCc1nc2n[nH]c(N)c2c2c1COC(C)(C)C2 — lower, -9.95%
- CCOC(=O)C1=C(C)Nc2nc3ccccc3n2C1c1ccncc1 (centres unmarked) — higher, 8.17%
- COc1ccc(Oc2coc3cc(OC(=O)/C=C/c4ccccc4)ccc3c2=O)cc1 — higher, 0.507%
- N#Cc1ccccc1OCC(=O)N1CCc2ccccc2C1 — higher, 5.41%
- Cc1cccc(C(=O)Nc2sc(C(=O)N3CCCC3)c(C)c2C#N)c1 — higher, 13.8%
- Cc1cc(C)nc(-n2c(C)nc3cc(Cl)ccc3c2=O)c1 — higher, 15.2%
- CC1C(=O)Nc2ccc(S(=O)(=O)NCCc3ccc(Cl)cc3)cc2NC1=O (centres unmarked) — higher, 14.3%
- CCCn1c(/C=C/c2ccco2)nc2ccccc21 — higher, 14.2%
- COc1ccc(C(=O)/C=C/c2ccccc2F)c(OC(=O)c2ccc([N+](=O)[O-])cc2)c1 — higher, 8.58%
- COc1ccc(C(=O)NN(C)c2nc(-c3ccccc3)nnc2C(F)(F)F)cc1 — higher, 10.1%
- CSc1nccc(N/N=C/c2ccccc2)n1 — higher, 15.5%
- COc1ccc(OC)c(/C=N/NC(=O)CNC(=O)c2cccc3ccccc23)c1 — higher, 11.2%
- O=C1C(=O)N(Cc2ccncc2)C(c2cccc(O)c2)/C1=C(\O)c1ccc2c(c1)OCCO2 (centres unmarked) — higher, 17%
- Cc1cc(C)nc(N/N=C/c2c(C)oc3ccccc23)n1 — higher, 8.73%
- COc1cc[n+](OC(=O)N2CCCCC2)c(C)c1.c1ccc([B-](c2ccccc2)(c2ccccc2)c2ccccc2)cc1 — higher, 4.96%
- COCCNC(=S)Nc1ccc(S(=O)(=O)Nc2cnc3ccccc3n2)cc1 — higher, 3.04%
- Cc1ccc(CN2C(=O)c3ccccc3NC2c2ccccn2)cc1 (centres unmarked) — higher, 12.5%
- CC1CCN(CCCNC(=O)c2cc3c(s2)-c2ccccc2OC3)CC1 — higher, -6.03%
- Cc1cc(C)nc(SCC(=O)OCC(=O)Nc2ccccc2)n1 — higher, 7.19%
- CCCN1C(=O)C(NC(C)=O)c2cc(OC)ccc21 (centres unmarked) — higher, 22.7%
- O=C(NC1CC1)C1=C[C@@H](c2ccc(C(F)(F)F)cc2)C[C@@H](OCCCCO)O1 — higher, 4.02%
- N#CC1=C(N)N(c2ccccc2)C2=C(C(=O)CCC2)C1c1ccsc1 (centres unmarked) — lower, -11.2%
- Cc1ccc(C(C)C)c(OCc2nn(CC(=O)c3ccc(OC(F)F)cc3)c3[n+]2CCCCC3)c1.[Br-] — lower, -14.2%
- O=C(CCc1ccc(CCC(=O)c2cccs2)s1)c1cccs1 — higher, 14.9%
- CCOc1cccc2sc(N(CCN(C)C)C(=O)c3cc4ccccc4cc3OC)nc12.Cl — lower, -8.58%
- COc1ccccc1NC(=O)c1cc[n+]([O-])cc1 — higher, 14.3%
- Oc1cccc(/C=N/Nc2ncnc3c2ncn3Cc2ccccc2)c1 — higher, 0.545%
- O=C(O)c1ccc(Cl)c(NC(=S)NC(=O)c2cccc(COc3ccccc3)c2)c1 — higher, 19.2%
- C/C(=N\Nc1cccc(Cl)c1)c1ccc(-n2ccnc2)cc1 — higher, 7.01%
- CCC1=C(OC(=O)N(CC)CC)N2C(=O)OC(=NCCc3c[nH]c4ccccc34)[C@]2(Cc2ccccc2)[C@H]2C1=CC[C@H]1C(=O)NC(=O)[C@H]12 — higher, 13.2%
- CCC(CC)N1CCN(Cc2nc3ccc([N+](=O)[O-])cc3c(=O)n2-c2ccccc2F)CC1 — lower, -28.8%
- O=C(N1CCOCC1)N1CCN(S(=O)(=O)c2ccc(F)cc2)CC1 — higher, 9.95%
- CN(C)S(=O)(=O)c1ccc(N2CCCC2)c(C(=O)N2CCN(S(=O)(=O)c3ccccc3F)CC2)c1 — higher, 10.2%
- CCOC(=O)C1(CCc2ccccc2)CCN(C2Cc3ccccc3C2)CC1 — lower, -18.7%
- CC1CCN(CCCN2C(=O)C3C(C(=O)Nc4cccc(Cl)c4)C4C=CC3(O4)C2C(=O)NC2CCCCC2)CC1 (centres unmarked) — higher, 11.7%
- C/C(=N\NC(=O)c1cc(-c2ccc(C)s2)[nH]n1)c1ccncc1 — higher, 11.8%
- Cc1ccc(N(C)S(=O)(=O)c2cccc(C(=O)NC3CC(C)(C)NC(C)(C)C3)c2)cc1 — higher, 9.04%
- Cn1c(C(=O)OC(C(=O)NC2CCCC2)c2cccnc2)cc2sccc21 (centres unmarked) — higher, 7.64%
- COCc1c(C(=O)N2CCN(Cc3ccc4c(c3)OCO4)CC2)oc2ccccc12 — higher, 10.2%
- CCOC(=O)N1CCN(c2c(NCc3ccccn3)c(=O)c2=O)CC1 — higher, 8.73%
- O=C(NCCc1ccccc1)c1ccccc1[N+](=O)[O-] — higher, 11.5%
- O=C1/C(=C/c2ccco2)Oc2c1ccc(O)c2CN1CCCCC1 — higher, -0.366%
- CCOc1ccccc1NC(=O)Nc1ccncc1 — higher, 4.41%
- CCCn1c(C)cc(C=O)c1C — higher, 21.5%
- CC(C)Sc1nc(N2CCOCC2)c2c(c1C#N)CC(C)(C)SC2 — higher, 13.3%
- O=C(CSc1nnc(CNC(=O)c2cccs2)o1)c1ccccc1 — higher, 10.7%
- O=C(c1cccc(C(F)(F)F)c1)C1CCCN(Cc2ncc[nH]2)C1 (centres unmarked) — higher, 11.1%
- Cc1ccc(Cn2cc(C=O)c(-c3ccc(F)cc3)n2)cc1 — higher, 18%
- O=C(CCN1C(=O)S/C(=C\C=C\c2ccccc2)C1=O)Nc1ccc(O)cc1 — higher, 1.63%
- CCOCCCn1c(=S)[nH]c2cc(C(=O)N3CCC(C(N)=O)(N4CCCCC4)CC3)ccc2c1=O — higher, 9.01%
- Br.CC1(C(=O)CSc2ncn[nH]2)CCC(=O)O1 (centres unmarked) — higher, 8.73%
- CCN(CC)c1ccc(C(=O)Nc2cccc(F)c2)cc1 — higher, -5.11%
- Br.Cc1ccnc(Nc2nc(-c3ccc(Cl)cc3)cs2)c1 — higher, 9.55%
- O=C(Nc1ccccc1C(=O)NCC1CCCO1)c1ccc(Cl)cc1 (centres unmarked) — higher, 0.913%
- CCOc1ccc2c(c1)C(c1ccc(C)cc1)=NNC(c1ccc(OC)cc1)=N2 — higher, -3.73%
- O=C(/C=C/c1ccccc1)N1CCC(N2CCC(C(=O)N3CCOCC3)CC2)CC1 — higher, 2.83%
- O=C(NCc1cc([N+](=O)[O-])ccc1O)c1cccnc1Sc1ccccc1Cl — higher, 22.1%
- Cc1ccc(Nc2ccccc2)nn1 — higher, 12.4%
- CCOC(=O)c1ccc(NC(=O)Nc2ccc(Cl)cn2)cc1 — higher, 4.63%
- CCOc1ccccc1NC(=O)c1ccc(S(=O)(=O)N2CCOCC2)cc1 — higher, -0.445%
- CCCCOc1ccccc1C(=O)NCCCC(=O)O — higher, 11.2%
- CCc1ccc(N(CC(=O)NCc2ccc3c(c2)OCO3)C(=O)c2csnn2)cc1 — higher, 8.92%
- COc1ccc(C(=O)OCC(=O)c2ccc(CNC(C)=O)s2)cc1 — higher, -5.56%
- O=C(Nc1ccc(F)cc1)c1nc2c(nnn2Cc2cccc3ccccc23)c(=O)[nH]1 — higher, 20.4%
- CSc1cccc(-n2c(C)cc(C(N)=O)c2C)c1 — higher, 14.2%
- Cc1cc(C)nc(SCc2nnc(SCC(=O)N3CCCc4ccccc43)n2C)n1 — higher, 3.32%
- CCOc1cc(C2C3=C(CCCC3=O)NC3=C2C(=O)CCC3)ccc1OCCO — higher, 9.61%
- COc1ccc(-n2ncc3c(NCc4ccccn4)ncnc32)cc1 — higher, -3.69%
- CCN(CC)CCCNC(=O)/C(=C\c1cccn1C)NC(=O)c1cccs1 — higher, 12.8%
- Cc1ccccc1NC(=S)Nc1ccccn1 — higher, 14.9%
- FC(F)(F)COc1ccc(-c2nnc(SCc3ccccc3)o2)cn1 — higher, 6.62%
- Cc1cc(-c2nnc(SCC(=O)Nc3c(C)cccc3C)n2N)n[nH]1 — higher, 9.64%
- Oc1c(Br)cc(Br)cc1/C=N/N1CCN(Cc2ccccc2)CC1 — higher, 16.3%
- Cc1ccc(NC(=O)Cc2ccc(-c3ccccc3)cc2)nc1 — higher, 11.3%
- COC(=O)[C@H](Cc1ccccc1)NC(=O)Nc1ccc(OC)cc1 — higher, 8.42%
- Cc1nc(N)[nH]c(=O)c1CCC(=O)OCC(C)C — higher, 16.7%
- COCCCN1C(=O)c2[nH]nc(-c3ccccc3O)c2C1c1cccc(Cl)c1 (centres unmarked) — higher, 16.8%
- CC12CN3CC(C)(CN(C1)C3c1ccc(F)cc1)C2 (centres unmarked) — lower, -17.9%
- O=c1c2c(-c3ccccc3)csc2ncn1/N=C/c1ccc(O)c([N+](=O)[O-])c1 — higher, 8.46%
